According to PubChem BioAssay AID1468 (National Center for Advancing Translational Sciences (NCATS), 2008):
Hit rate of the full screen: of about 280,000 compounds, about 1,100 (0.39%) were called active. The shares of active, inactive and inconclusive entries below differ from those in the screen. Calls follow the shape of the dose curve; as a rule, active = well fitted inhibition curve with a large enough effect; inconclusive = small, poorly fitted or top-dose-only effect, or effect the other way; inactive = flat fitted curve, though single readings scatter. Potencies of inconclusive entries are left out as doubtful fits.

Biological target: Microtubule-associated protein tau (Homo sapiens) (UniProt P10636)
Experiment: qHTS for Inhibitors of Tau Fibril Formation, Fluorescence Polarization; also: nearly all actives have a fitted effect of over 55% in size
Conditions: K18 P301L tau heparin fibrillization, Alexa594 FP, 6 h; series mostly up to 57.7 µM
How it was run: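 Recombinant K18 P301L […], labeled with Alexa 594 at 0.24 uM over 15 uM unlabeled; heparin inducer 20 uM final; 37 C, 6 hr; FP endpoint.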
Potency is read from the fitted curve at half-maximal effect; tags tell the direction and shape of the fitted curve.

Sequence of UniProt P10636 (P10636 whole entry, looked up): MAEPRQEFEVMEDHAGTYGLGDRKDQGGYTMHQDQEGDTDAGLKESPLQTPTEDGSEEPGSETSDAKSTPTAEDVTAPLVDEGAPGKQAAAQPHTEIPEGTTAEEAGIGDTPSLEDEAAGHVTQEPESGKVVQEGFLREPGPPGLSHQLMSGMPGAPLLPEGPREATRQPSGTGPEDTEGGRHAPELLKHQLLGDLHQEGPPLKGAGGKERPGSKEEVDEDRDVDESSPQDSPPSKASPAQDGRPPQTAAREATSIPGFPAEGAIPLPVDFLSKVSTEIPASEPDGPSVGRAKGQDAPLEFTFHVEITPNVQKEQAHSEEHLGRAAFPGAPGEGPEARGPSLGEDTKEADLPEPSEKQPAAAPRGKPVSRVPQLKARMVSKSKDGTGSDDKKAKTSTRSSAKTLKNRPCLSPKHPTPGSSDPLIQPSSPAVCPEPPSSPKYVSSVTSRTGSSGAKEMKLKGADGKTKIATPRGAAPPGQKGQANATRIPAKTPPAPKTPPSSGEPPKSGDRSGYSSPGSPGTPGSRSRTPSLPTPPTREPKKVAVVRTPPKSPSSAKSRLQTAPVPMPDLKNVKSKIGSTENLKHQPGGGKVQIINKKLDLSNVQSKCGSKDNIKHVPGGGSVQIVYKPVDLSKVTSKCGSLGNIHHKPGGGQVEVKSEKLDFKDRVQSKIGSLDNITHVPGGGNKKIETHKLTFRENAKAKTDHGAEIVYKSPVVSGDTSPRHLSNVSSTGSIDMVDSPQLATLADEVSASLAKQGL

| SMILES | Potency |
| --- | --- |
| CCS(=O)(=O)c1ccc(C(=O)Nc2ccccc2OC)c(Cl)c1Cl | inactive |
| O=c1cc(-c2ccccc2)[nH]n1-c1nc2ccccc2[nH]1 | inconclusive [inhibitor, partial curve, poor fit] |
| Cc1cc(C)c(Nc2nc3ccccc3n3c(C)nnc23)c(C)c1 | inconclusive [inhibitor, full curve, poor fit] |
| CC(=O)Nc1nonc1-c1nnc(SCC(=O)Nc2ccc(C)cc2)n1-c1ccccc1 | inactive |
| COc1ccc(-c2cc(-c3ccccc3)c(C#N)c(SCC(O)CS(=O)(=O)Cc3ccc(Cl)cc3)n2)cc1 (stereo not drawn) | inconclusive [inhibitor, partial curve] |
| O=C(N/N=C/c1ccccn1)NC12CC3CC(CC(C3)C1)C2 | inactive |
| CN1CCN(C(=O)c2cc3nc(-c4ccc(Cl)cc4)cc(C(F)(F)F)n3n2)CC1 | inactive |
| O=C(CSc1nc2c(sc3ccccc32)c(=O)n1Cc1ccccc1)NCC1CCCO1 (stereo not drawn) | inactive |
| CC(C)OC(=O)C(C)(C)Oc1ccc(C(=O)c2ccc(Cl)cc2)cc1 | inconclusive [inhibitor, single point] |
| COc1ccc(-c2nc3n(c(=O)c2C#N)CCCS3)cc1 | inconclusive [inhibitor, single point] |
| COc1ccc(Nc2ccc3c(c2)=NC2(CCCCC2)[N+]=3[O-])cc1 | inconclusive [inhibitor, partial curve] |
| O=C(Nc1ccc(S(=O)(=O)Nc2ncccn2)cc1)c1ccc(S(=O)(=O)N2CCCC2)cc1 | inactive |
| CN=Cc1sc2ccccc2c1O | inactive |
| CC(C)c1nn2c(=O)cc(COC(=O)c3ccc(NC(=O)COc4ccccc4)cc3)nc2s1 | inactive |
| O=C1c2ccccc2NC(c2ccc(Cl)cc2Cl)N1Cc1ccccc1 (stereo not drawn) | inconclusive [activator, single point] |
| CC1=NN(c2ccccc2)C(=O)/C1=C\C=C1/N(C)c2ccccc2C1(C)C | inconclusive [activator, partial curve, poor fit] |
| O=C(Nc1ccc(-c2csc(Nc3ccccc3)n2)cc1)c1cccc(C(F)(F)F)c1 | inactive |
| Cc1cccc(/C=N\Nc2nnc(-c3ccccc3)c(=O)[nH]2)c1 | inconclusive [inhibitor, partial curve, poor fit] |
| CCc1ccc(CNC(=O)c2cnc3sc(N4CCCC4)nn3c2=O)cc1 | inactive |
| CCOC(=O)c1c(N)ssc1=S | active: 11.2 µM |
| Cc1cccc(N2C(=O)CS/C2=N\NC(=O)c2ccc(Cl)cc2)c1C | inactive |
| COC(=O)NC(Nc1sc2c(c1C(N)=O)CCCC2)(C(=O)OC)C(F)(F)F (stereo not drawn) | inconclusive [inhibitor, partial curve] |
| CCOC(=O)c1sc(NC(=S)NC(=O)C2CCCC2)cc1C | inconclusive [inhibitor, partial curve] |

| SMILES | Potency |
| --- | --- |
| COc1cc(NC(=O)c2cc(C3CC3)nc3c2c(C)nn3-c2ccccc2)cc(OC)c1 | inconclusive [inhibitor, partial curve] |
| COC(=O)Cn1c(=O)c2cccn2c2ccc(F)cc21 | inactive |
| CC(C)NC(=O)C1(c2ccccc2)CCOCC1 | inactive |
| COc1ccccc1OC(C)C(=O)Nc1cccc(-c2nc3ccccc3s2)c1 (stereo not drawn) | inconclusive [inhibitor, partial curve] |
| Cc1cc(C)n(-c2nc3ccccc3nc2Nc2ccc(N(C)C)cc2)n1 | inconclusive [activator, full curve, poor fit] |
| O=C(CCCn1c2ccccc2c(=O)c2ccccc21)Nc1cccc(Cl)c1 | inconclusive [inhibitor, partial curve] |
| CCOC(=O)c1ccc(NC(=O)CN2CCN(CCN=CC3=C(O)CC(C)(C)CC3=O)CC2)cc1 | inactive |
| CCOc1cc(/C=N/N=C(/N)c2nonc2N)cc(Br)c1OCc1ccc(Cl)cc1 | inconclusive [inhibitor, partial curve] |
| O=C(CCn1c(=O)oc2ccccc21)NC1=NCCS1 | inconclusive [inhibitor, single point] |
| O=C(CN1CCN(c2ccccc2)CC1)N/N=C/c1cccc(F)c1 | inactive |
| O=S(=O)(c1ccc(Br)s1)N1CCN(c2cccc(C(F)(F)F)c2)CC1 | inconclusive [inhibitor, single point] |
| Cc1c(C(=O)N/N=C/c2ccc(O)c(Br)c2)sc(N)c1C#N | inconclusive [activator, partial curve] |
| O=C(NC(=S)NCCO)c1cn(-c2ccccc2)nc1-c1ccccc1 | inconclusive [inhibitor, single point] |
| O=C(Nc1ccc(C(F)(F)F)cc1)c1ccc2nc[nH]c2c1 | inconclusive [inhibitor, partial curve] |
| CCCn1c(N)c(C(c2ccc(OC)cc2)N2CCN(c3ccccc3)CC2)c(=O)[nH]c1=O (stereo not drawn) | inactive |
| COc1cc(NC(=O)Cn2nc(C(F)(F)F)c3c2CCC3)cc(OC)c1OC | inactive |
| O=C(CCn1c(=O)c2ccccc2n(CC(=O)Nc2cccc(F)c2)c1=O)NCCc1ccccc1 | inconclusive [inhibitor, partial curve] |
| Cc1cccc(-c2nnc(NC(=O)c3ccc(N4C(=O)CCC4=O)cc3)s2)c1 | inconclusive [inhibitor, single point] |
| CCc1nnc(NC(=O)CSc2ccc(-c3ccccc3OC)nn2)s1 | inactive |
| O=C(COC(=O)c1cccnc1Cl)Nc1nc(-c2ccccc2)cs1 | inconclusive [inhibitor, single point] |
| COc1cc2c(cc1NC(=O)C(C)Sc1ccc(NC(C)=O)cc1)oc1ccccc12 (stereo not drawn) | inconclusive [inhibitor, partial curve] |
| Cc1ccccc1NC(=O)Cn1cc(C(=O)c2ccco2)c2ccccc21 | inconclusive [inhibitor, single point] |
| Brc1cnc2nc(SC/C=C/c3ccccc3)[nH]c2c1 | inconclusive [inhibitor, single point] |

| SMILES | Potency |
| --- | --- |
| CC(=O)c1cc(C)ccc1OC(=O)c1ccco1 | inactive |
| CCOC(=O)CSc1nc2ccccc2c(=O)n1NC(=O)c1ccccc1 | inconclusive [inhibitor, single point] |
| CCN(CC)S(=O)(=O)c1ccc(NC(=O)CSc2nnc(-c3ccc(F)cc3)o2)cc1 | inconclusive [inhibitor, partial curve] |
| Cc1ccc(Nc2ccc3cc(S(=O)(=O)N4CCC(C)CC4)ccc3n2)c(Cl)c1 | inconclusive [inhibitor, single point] |
| CCOC(=O)N1CCc2c(sc3c2c(=O)n(Cc2ccccc2)c(=O)n3CC(=O)Nc2cccc(CC)c2)C1 | inconclusive [inhibitor, partial curve] |
| CN1C(=O)CSc2ccc(NC(=O)NCCC3=CCCCC3)cc21 | inconclusive [activator, single point] |
| O=C(COC(=O)C1CCN(S(=O)(=O)c2cccs2)CC1)NCc1ccccc1 | inconclusive [inhibitor, partial curve] |
| CCOC(=O)c1ccc(NC(=O)Cn2nc3c4ccccc4n(Cc4cccc(F)c4)cc-3c2=O)cc1 | inactive |
| O=C(CN1C(=O)/C(=C2\SC(=S)N(C3CCS(=O)(=O)C3)C2=O)c2ccccc21)Nc1ccc(F)cc1 (stereo not drawn) | inconclusive [activator, partial curve] |
| Cc1cccc(NC(=S)NCC(C)CSc2ccc(Cl)cc2)c1 (stereo not drawn) | inconclusive [inhibitor, single point] |
| C[n+]1c2n(c3ccccc31)N=C(c1ccc(Cl)cc1)CS2 | inconclusive [inhibitor, full curve, poor fit] |
| CCOC(=O)CN1C(=O)C(O)(c2c(C)[nH]c3ccccc23)c2ccccc21 (stereo not drawn) | inactive |
| COc1ccc(OCc2nc(C#N)c(N3CCN(c4ccc(OC)cc4)CC3)o2)cc1 | inconclusive [activator, partial curve] |
| CC(C)C[C@H](NC(=O)c1[nH]cnc1C(=O)N[C@H](C)c1ccccc1)C(=O)OCc1ccccc1 | inconclusive [inhibitor, single point] |
| COc1ccc2cc(C(=O)NCCO)sc(=O)c2c1OC | inconclusive [inhibitor, partial curve] |
| CCOC(=O)c1cc(-c2ccccc2)n(-c2cccc(C(=O)Nc3cccc(SC)c3)c2)c1C | inconclusive [inhibitor, partial curve, poor fit] |
| CCOC(=O)C1CCCN(CC(=O)Nc2c(C(=O)OC)[nH]c3ccc(Cl)cc23)C1 (stereo not drawn) | inconclusive [activator, single point] |
| COCCOC(=O)c1[nH]c2c(c1C)C(=O)CC(c1cccs1)C2 (stereo not drawn) | inactive |
| COC(=O)c1ccc(NC(=O)CCN2CCN(Cc3ccccc3)CC2)cc1 | inconclusive [inhibitor, single point] |
| OCCN(Cc1ccccc1)Cc1ccc(F)c(F)c1 | inactive |
| CCCc1nc(SCC(=O)Nc2ccccc2)c2c(=O)n(C)c(=O)n(C)c2n1 | inconclusive [inhibitor, partial curve, poor fit] |
| Cc1cc(C)nc(SCC(=O)NC2=NC(=O)C(C)S2)n1 (stereo not drawn) | inconclusive [inhibitor, single point] |
